Positions count from the first letter of the chain named. The list shows a part of the results.
T1: RBFOX1 RRM RbFoxmut (Fox-RRM*) (Homo sapiens, UniProt Q9NWB1 109-208, R118D;E147R;N151S;E152T)
T1 sequence: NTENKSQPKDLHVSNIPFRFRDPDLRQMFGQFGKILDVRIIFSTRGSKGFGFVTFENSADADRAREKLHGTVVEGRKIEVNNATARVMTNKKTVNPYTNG

B1: CACAGCA (DNA:RNA)
RNA: GGGAGACCGGAAUUCAGAUUGUCCCACAGCAUUAAAUCCCGUCGUAGCCACCA
DNA 1: CAATCTGAATTCCGGTCTCCC
DNA 2: TGGTGGCTACGACGGGATT
B2: UUUGAAU (DNA:RNA)
RNA: GGGAGACCGGAAUUCAGAUUGUCCUUUGAAUUUAAAUCCCGUCGUAGCCACCA
DNA 1: CAATCTGAATTCCGGTCTCCC
DNA 2: TGGTGGCTACGACGGGATT
B3: CACAAAC (DNA:RNA)
RNA: B1 RNA with G29A, C30A, A31C
DNA 1: CAATCTGAATTCCGGTCTCCC
DNA 2: TGGTGGCTACGACGGGATT
B4: UACAUCA (DNA:RNA)
RNA: B1 RNA with C25U, G29U
DNA 1: CAATCTGAATTCCGGTCTCCC
DNA 2: TGGTGGCTACGACGGGATT
B5: CUAAAUA (DNA:RNA)
RNA: B1 RNA with A26U, C27A, G29A, C30U
DNA 1: CAATCTGAATTCCGGTCTCCC
DNA 2: TGGTGGCTACGACGGGATT
B6: AAUUAGC (DNA:RNA)
RNA: B2 RNA with U25A, U26A, G28U, A30G, U31C
DNA 1: CAATCTGAATTCCGGTCTCCC
DNA 2: TGGTGGCTACGACGGGATT
B7: UAUUUUG (DNA:RNA)
RNA: B2 RNA with U26A, G28U, A29U, A30U, U31G
DNA 1: CAATCTGAATTCCGGTCTCCC
DNA 2: TGGTGGCTACGACGGGATT
B8: UUAAUAU (DNA:RNA)
RNA: B2 RNA with U27A, G28A, A29U
DNA 1: CAATCTGAATTCCGGTCTCCC
DNA 2: TGGTGGCTACGACGGGATT
B9: CGCUGAA (DNA:RNA)
RNA: B1 RNA with A26G, A28U, C30A
DNA 1: CAATCTGAATTCCGGTCTCCC
DNA 2: TGGTGGCTACGACGGGATT
B10: GGCUAGU (DNA:RNA)
RNA: B2 RNA with U25G, U26G, U27C, G28U, A30G
DNA 1: CAATCTGAATTCCGGTCTCCC
DNA 2: TGGTGGCTACGACGGGATT
B11: GAUCAGG (DNA:RNA)
RNA: B2 RNA with U25G, U26A, G28C, A30G, U31G
DNA 1: CAATCTGAATTCCGGTCTCCC
DNA 2: TGGTGGCTACGACGGGATT
B12: AUACCUU (DNA:RNA)
RNA: B2 RNA with U25A, U27A, G28C, A29C, A30U
DNA 1: CAATCTGAATTCCGGTCTCCC
DNA 2: TGGTGGCTACGACGGGATT
B13: UUCAGCC (DNA:RNA)
RNA: B1 RNA with C25U, A26U, A31C
DNA 1: CAATCTGAATTCCGGTCTCCC
DNA 2: TGGTGGCTACGACGGGATT
B14: CUUUCGG (DNA:RNA)
RNA: B2 RNA with U25C, G28U, A29C, A30G, U31G
DNA 1: CAATCTGAATTCCGGTCTCCC
DNA 2: TGGTGGCTACGACGGGATT
B15: GACGGAC (DNA:RNA)
RNA: B1 RNA with C25G, A28G, C30A, A31C
DNA 1: CAATCTGAATTCCGGTCTCCC
DNA 2: TGGTGGCTACGACGGGATT
B16: CCCGAAC (DNA:RNA)
RNA: B2 RNA with U25C, U26C, U27C, U31C
DNA 1: CAATCTGAATTCCGGTCTCCC
DNA 2: TGGTGGCTACGACGGGATT
B17: GCUGUAA (DNA:RNA)
RNA: B2 RNA with U25G, U26C, A29U, U31A
DNA 1: CAATCTGAATTCCGGTCTCCC
DNA 2: TGGTGGCTACGACGGGATT
B18: UAGAUGG (DNA:RNA)
RNA: B1 RNA with C25U, C27G, G29U, C30G, A31G
DNA 1: CAATCTGAATTCCGGTCTCCC
DNA 2: TGGTGGCTACGACGGGATT
B19: GAGAAGC (DNA:RNA)
RNA: B1 RNA with C25G, C27G, G29A, C30G, A31C
DNA 1: CAATCTGAATTCCGGTCTCCC
DNA 2: TGGTGGCTACGACGGGATT
B20: UCUCCAC (DNA:RNA)
RNA: B2 RNA with U26C, G28C, A29C, U31C
DNA 1: CAATCTGAATTCCGGTCTCCC
DNA 2: TGGTGGCTACGACGGGATT
B21: UCUAGAC (DNA:RNA)
RNA: B2 RNA with U26C, G28A, A29G, U31C
DNA 1: CAATCTGAATTCCGGTCTCCC
DNA 2: TGGTGGCTACGACGGGATT
B22: UCGCGAG (DNA:RNA)
RNA: B2 RNA with U26C, U27G, G28C, A29G, U31G
DNA 1: CAATCTGAATTCCGGTCTCCC
DNA 2: TGGTGGCTACGACGGGATT
B23: CUAACCA (DNA:RNA)
RNA: B1 RNA with A26U, C27A, G29C
DNA 1: CAATCTGAATTCCGGTCTCCC
DNA 2: TGGTGGCTACGACGGGATT
B24: GUCCGUG (DNA:RNA)
RNA: B1 RNA with C25G, A26U, A28C, C30U, A31G
DNA 1: CAATCTGAATTCCGGTCTCCC
DNA 2: TGGTGGCTACGACGGGATT
B25: UGAUUGA (DNA:RNA)
RNA: B1 RNA with C25U, A26G, C27A, A28U, G29U, C30G
DNA 1: CAATCTGAATTCCGGTCTCCC
DNA 2: TGGTGGCTACGACGGGATT
B26: CAGCUAG (DNA:RNA)
RNA: B1 RNA with C27G, A28C, G29U, C30A, A31G
DNA 1: CAATCTGAATTCCGGTCTCCC
DNA 2: TGGTGGCTACGACGGGATT
B27: GACUAUA (DNA:RNA)
RNA: B1 RNA with C25G, A28U, G29A, C30U
DNA 1: CAATCTGAATTCCGGTCTCCC
DNA 2: TGGTGGCTACGACGGGATT
B28: CCUAGAA (DNA:RNA)
RNA: B1 RNA with A26C, C27U, C30A
DNA 1: CAATCTGAATTCCGGTCTCCC
DNA 2: TGGTGGCTACGACGGGATT
B29: CAAUGAA (DNA:RNA)
RNA: B1 RNA with C27A, A28U, C30A
DNA 1: CAATCTGAATTCCGGTCTCCC
DNA 2: TGGTGGCTACGACGGGATT
B30: GGCAACC (DNA:RNA)
RNA: B1 RNA with C25G, A26G, G29A, A31C
DNA 1: CAATCTGAATTCCGGTCTCCC
DNA 2: TGGTGGCTACGACGGGATT
B31: AAGCAAU (DNA:RNA)
RNA: B2 RNA with U25A, U26A, U27G, G28C
DNA 1: CAATCTGAATTCCGGTCTCCC
DNA 2: TGGTGGCTACGACGGGATT

Target: T1, RBFOX1 RRM RbFoxmut (Fox-RRM*)
Experiment: EMSA; HiTS-Eq, 1 nM pool, 10 min; buffer printed only for the single-RNA assays: 10 mM Tris pH 7.5, 150 mM NaCl, 3.4 mM EDTA, 0.001% NP-40, 30 C
Conditions: tags: His6 N-terminal (pET28a); label: 5' 32P
How it was run: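 Purified RbFox RRM, wild type or mutant, was incubated for 10 min in 50 µL with 1 nM of a 5′-radiolabelled RNA pool carrying 7 randomized nucleotides, whose flanks were annealed to DNA oligonucleotides, over a series of increasing protein concentrations. Unbound RNA was resolved on 8% native PAGE, cut out, reverse-transcribed, barcoded by PCR and sequenced on an Illumina HiSeq 2500. Relative association constants were derived from changes in read counts for each RNA species versus the control reaction and normalised to the cognate motif.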

Binder	binding signal
B1	0.123 KA relative to UGCAUGU
B2	0.0897 KA relative to UGCAUGU
B3	0.0493 KA relative to UGCAUGU
B4	0.0646 KA relative to UGCAUGU
B5	0.111 KA relative to UGCAUGU
B6	0.088 KA relative to UGCAUGU
B7	0.0891 KA relative to UGCAUGU
B8	0.0923 KA relative to UGCAUGU
B9	0.102 KA relative to UGCAUGU
B10	0.107 KA relative to UGCAUGU
B11	0.0758 KA relative to UGCAUGU
B12	0.094 KA relative to UGCAUGU
B13	0.113 KA relative to UGCAUGU
B14	0.0623 KA relative to UGCAUGU
B15	0.104 KA relative to UGCAUGU
B16	0.07 KA relative to UGCAUGU

Binder	binding signal
B17	0.126 KA relative to UGCAUGU
B18	0.0721 KA relative to UGCAUGU
B19	0.0713 KA relative to UGCAUGU
B20	0.124 KA relative to UGCAUGU
B21	0.0925 KA relative to UGCAUGU
B22	0.126 KA relative to UGCAUGU
B23	0.0911 KA relative to UGCAUGU
B24	0.146 KA relative to UGCAUGU
B25	0.209 KA relative to UGCAUGU
B26	0.0999 KA relative to UGCAUGU
B27	0.133 KA relative to UGCAUGU
B28	0.0763 KA relative to UGCAUGU
B29	0.102 KA relative to UGCAUGU
B30	0.0655 KA relative to UGCAUGU
B31	0.0605 KA relative to UGCAUGU

Source: PMC9911399, “Two distinct binding modes provide the RNA-binding protein RbFox with extraordinary sequence specificity”
